Consider 67 cell lines from the supplement of paper PMC4967469.

What is called IC50 is the concentration that gives 50% inhibition.

IC50 is the fitted dose that halves viability relative to control wells, and lower means more sensitive; a limit (>, <) means that the fit lies beyond the doses tested. AUC, from the same fit, is the share of area under the viability curve across the 256-fold dose range: 1 means no effect, lower means more sensitive.

Compound in the assay: CC[C@H](Nc1ncnc2[nH]cnc12)c1nc2cccc(F)c2c(=O)n1-c1ccccc1 [CAL-101]
Kind of assay: Viability of human cancer cell lines after 72 h of drug (GDSC screen). How it is done: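 Human cancer cell lines in 384-well plates, medium with 10% serum, drug for 72 h over a 256-fold dose range (nine 2-fold or five 4-fold steps up to the top dose). Adherent lines were fixed and stained with the nucleic acid dye Syto60, suspension lines read with resazurin; signal relative to control wells, capped at 0 and 100%. One two-parameter sigmoid per drug and line, fitted in a mixed model over all curves with the slope shared within a line.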

Regarding “D-542MG (glioma, adherent, top dose 20 µM)”, the AUC amounted to 0.98 and the half-inhibitory concentration (IC50) was over 20 µM.

“D-566MG (glioma, adherent, top dose 20 µM)”: the AUC was determined as 0.85 and the IC50 amounted to 14.8 µM.

As for “DAN-G (pancreas, adherent, top dose 20 µM)”, the AUC was 0.982 and the IC50 was over 20 µM.

With “DB (B-cell lymphoma, suspension, top dose 20 µM)”, the AUC stood at 0.976 and the IC50 is over 20 µM.

Turning to “DBTRG-05MG (glioma, adherent, top dose 20 µM)”, the AUC is 0.933 and the 50% inhibitory concentration (IC50) was over 20 µM.

Turning to “DEL (lymphoid neoplasm, suspension, top dose 20 µM)”, the AUC amounted to 0.969 and the half-maximal inhibitory concentration (IC50) was over 20 µM.

Regarding “DG-75 (Burkitt lymphoma, suspension, top dose 20 µM)”, the AUC worked out at 0.986 and the IC50 was over 20 µM.

In the case of DJM-1 (skin, adherent, top dose 20 µM), the AUC turned out to be 0.986 and the IC50 was over 20 µM.

For “DK-MG (glioma, adherent, top dose 20 µM)”, the AUC was determined as 0.968 and the IC50 is over 20 µM.

For the cell line “DMS-53 (small cell lung carcinoma, adherent, top dose 20 µM)”, the AUC was 0.986 and the IC50 is over 20 µM.

As to “DMS-79 (small cell lung carcinoma, suspension, top dose 20 µM)”, the AUC stood at 0.961 and the IC50 was over 20 µM.

“DMS-114 (small cell lung carcinoma, adherent, top dose 20 µM)”: the AUC amounted to 0.983 and the IC50 was over 20 µM.

As for “DMS-273 (small cell lung carcinoma, adherent, top dose 20 µM)”, the AUC is 0.943 and the half-maximal inhibitory concentration (IC50) was over 20 µM.

As to “DND-41 (T-cell leukaemia, suspension, top dose 20 µM)”, the AUC amounted to 0.908 and the half-inhibitory concentration (IC50) is over 20 µM.

Regarding “DOK (head and neck, adherent, top dose 20 µM)”, the AUC is 0.878 and the IC50 is over 20 µM.

DOV13 (ovary, adherent, top dose 20 µM): the AUC is 0.979 and the 50% inhibitory concentration (IC50) is over 20 µM.

Consider “DSH1 (bladder, adherent, top dose 20 µM)”, for which the AUC was determined as 0.982 and the IC50 is over 20 µM.

With “DU-145 (prostate, adherent, top dose 20 µM)”, the AUC was found to be 0.985 and the half-inhibitory concentration (IC50) was over 20 µM.

Turning to “DU-4475 (breast, suspension, top dose 20 µM)”, the AUC is 0.989 and the IC50 was over 20 µM.

Regarding “Daoy (medulloblastoma, adherent, top dose 20 µM)”, the AUC turned out to be 0.951 and the IC50 is over 20 µM.

As to “Daudi (Burkitt lymphoma, suspension, top dose 20 µM)”, the AUC came out at 0.989 and the IC50 is over 20 µM.

In the case of “Detroit562 (head and neck, adherent, top dose 20 µM)”, the AUC came to 0.977 and the concentration for half-maximal inhibition (IC50) is over 20 µM.

Consider “DoTc2-4510 (cervix, adherent, top dose 20 µM)”, for which the AUC worked out at 0.981 and the IC50 was over 20 µM.

On to “EB2 (Burkitt lymphoma, suspension, top dose 20 µM)”, for which the AUC is 0.311 and the concentration for half-maximal inhibition (IC50) came out at 0.393 µM.

Take “EB-3 (Burkitt lymphoma, suspension, top dose 20 µM)”: the AUC worked out at 0.877 and the concentration for half-maximal inhibition (IC50) was over 20 µM.

Turning to “EBC-1 (lung squamous cell carcinoma, adherent, top dose 20 µM)”, the AUC was 0.952 and the half-maximal inhibitory concentration (IC50) was over 20 µM.

With “EC-GI-10 (oesophagus, adherent, top dose 20 µM)”, the AUC was determined as 0.989 and the half-maximal inhibitory concentration (IC50) was over 20 µM.

Take “ECC10 (stomach, suspension, top dose 20 µM)”: the AUC was 0.982 and the concentration for half-maximal inhibition (IC50) was over 20 µM.

With “EFM-19 (breast, adherent, top dose 20 µM)”, the AUC turned out to be 0.938 and the IC50 is over 20 µM.

As to “EFM-192A (breast, adherent, top dose 20 µM)”, the AUC was 0.981 and the IC50 was over 20 µM.

Regarding “EFO-21 (ovary, adherent, top dose 20 µM)”, the AUC was 0.859 and the IC50 was over 20 µM.

Regarding “EFO-27 (ovary, adherent, top dose 20 µM)”, the AUC stood at 0.948 and the IC50 was over 20 µM.

As for “EGI-1 (biliary tract, adherent, top dose 20 µM)”, the AUC amounted to 0.928 and the IC50 is over 20 µM.

As for “EJM (lymphoid neoplasm, semi-adherent, top dose 20 µM)”, the AUC stood at 0.977 and the half-maximal inhibitory concentration (IC50) is over 20 µM.

Take “EKVX (lung adenocarcinoma, adherent, top dose 20 µM)”: the AUC turned out to be 0.948 and the concentration for half-maximal inhibition (IC50) was over 20 µM.

With “EM-2 (chronic myeloid leukaemia, suspension, top dose 20 µM)”, the AUC was found to be 0.921 and the 50% inhibitory concentration (IC50) is over 20 µM.

In the case of “EMC-BAC-1 (lung adenocarcinoma, adherent, top dose 20 µM)”, the AUC was determined as 0.962 and the IC50 was over 20 µM.

“EMC-BAC-2 (lung adenocarcinoma, adherent, top dose 20 µM)”: the AUC is 0.951 and the half-maximal inhibitory concentration (IC50) is over 20 µM.

For the cell line “EN (endometrium, adherent, top dose 20 µM)”, the AUC worked out at 0.971 and the IC50 is over 20 µM.

As to “EPLC-272H (lung squamous cell carcinoma, adherent, top dose 20 µM)”, the AUC is 0.888 and the half-maximal inhibitory concentration (IC50) is over 20 µM.

For the cell line “ES1 (Ewing sarcoma, adherent, top dose 20 µM)”, the AUC turned out to be 0.881 and the IC50 is over 20 µM.

Consider “ES3 (Ewing sarcoma, adherent, top dose 20 µM)”, for which the AUC is 0.953 and the half-inhibitory concentration (IC50) is over 20 µM.

In the case of “ES4 (Ewing sarcoma, adherent, top dose 20 µM)”, the AUC is 0.898 and the IC50 is over 20 µM.

Consider “ES5 (Ewing sarcoma, adherent, top dose 20 µM)”, for which the AUC was determined as 0.799 and the IC50 came out at 11.3 µM.

Consider “ES6 (Ewing sarcoma, adherent, top dose 20 µM)”, for which the AUC worked out at 0.912 and the concentration for half-maximal inhibition (IC50) was over 20 µM.

On to “ES7 (Ewing sarcoma, adherent, top dose 20 µM)”, for which the AUC turned out to be 0.542 and the half-inhibitory concentration (IC50) turned out to be 1.63 µM.

With “ES8 (Ewing sarcoma, adherent, top dose 20 µM)”, the AUC amounted to 0.914 and the IC50 was over 20 µM.

As for ES-2 (ovary, adherent, top dose 20 µM), the AUC was 0.988 and the IC50 is over 20 µM.

As to “ESO26 (oesophagus, adherent, top dose 20 µM)”, the AUC turned out to be 0.982 and the IC50 was over 20 µM.

Turning to “ESO51 (oesophagus, semi-adherent, top dose 20 µM)”, the AUC turned out to be 0.965 and the IC50 is over 20 µM.

For the cell line “ESS-1 (endometrium, adherent, top dose 20 µM)”, the AUC stood at 0.973 and the concentration for half-maximal inhibition (IC50) is over 20 µM.

For the cell line “ETK-1 (biliary tract, adherent, top dose 20 µM)”, the AUC amounted to 0.955 and the IC50 was over 20 µM.

As for “EVSA-T (breast, adherent, top dose 20 µM)”, the AUC was 0.884 and the IC50 stood at 16.3 µM.

With “EW-1 (Ewing sarcoma, semi-adherent, top dose 20 µM)”, the AUC stood at 0.894 and the IC50 is over 20 µM.

Take “EW-3 (Ewing sarcoma, adherent, top dose 20 µM)”: the AUC was determined as 0.954 and the IC50 was over 20 µM.

Regarding “EW-7 (Ewing sarcoma, semi-adherent, top dose 20 µM)”, the AUC stood at 0.91 and the IC50 was over 20 µM.

With “EW-11 (Ewing sarcoma, adherent, top dose 20 µM)”, the AUC was 0.875 and the half-maximal inhibitory concentration (IC50) was over 20 µM.

Consider “EW-13 (Ewing sarcoma, suspension, top dose 20 µM)”, for which the AUC stood at 0.86 and the IC50 came to 19.8 µM.

“EW-16 (Ewing sarcoma, adherent, top dose 20 µM)”: the AUC turned out to be 0.951 and the IC50 is over 20 µM.

With “EW-18 (Ewing sarcoma, suspension, top dose 20 µM)”, the AUC stood at 0.893 and the IC50 was over 20 µM.

With “EW-24 (Ewing sarcoma, semi-adherent, top dose 20 µM)”, the AUC came to 0.993 and the 50% inhibitory concentration (IC50) is over 20 µM.

As to “EoL-1-cell (haematopoietic neoplasm, suspension, top dose 20 µM)”, the AUC was 0.963 and the half-inhibitory concentration (IC50) is over 20 µM.

With “FADU (head and neck, adherent, top dose 20 µM)”, the AUC amounted to 0.986 and the IC50 is over 20 µM.

As to “FLO-1 (oesophagus, adherent, top dose 20 µM)”, the AUC was determined as 0.902 and the half-maximal inhibitory concentration (IC50) was over 20 µM.

On to “FTC-133 (thyroid, adherent, top dose 20 µM)”, for which the AUC is 0.986 and the half-inhibitory concentration (IC50) was over 20 µM.

Turning to “FU97 (stomach, adherent, top dose 20 µM)”, the AUC came out at 0.924 and the IC50 is over 20 µM.

Take “FU-OV-1 (ovary, adherent, top dose 20 µM)”: the AUC was found to be 0.858 and the IC50 was over 20 µM.
